Data: the antibiotic and cytotoxicity screens of Wong et al. (2023)
The list shows a part of the results.

The molecules below were run on HepG2 (assay: cytotoxicity call (relative viability < 0.9)). Conditions: 10 µM.

SMILES | cytotoxicity call
C[C@H](CO)N1C[C@H](C)[C@@H](CN(C)C(=O)Nc2cccc(F)c2)Oc2ncc(Br)cc2C1=O | inactive
C[C@@H]1CN([C@H](C)CO)C(=O)c2cc(NC(=O)c3ccncc3)ccc2O[C@@H](C)CCCCO[C@H]1CN(C)C(=O)Nc1ccccc1 | inactive
C[C@@H]1CN([C@@H](C)CO)S(=O)(=O)c2ccc(C#CC3CCCC3)cc2O[C@@H]1CN(C)C(=O)Cc1ccncc1 | inactive
C[C@@H]1CCCCO[C@@H](CN(C)C(=O)Nc2ccc(C(F)(F)F)cc2)[C@H](C)CN([C@@H](C)CO)C(=O)c2cc(N(C)C)ccc2O1 | inactive
CC(C)NC(=O)N(C)C[C@H]1OCCCC[C@H](C)Oc2ccc(NC(=O)C3CCCCC3)cc2C(=O)N([C@@H](C)CO)C[C@H]1C | inactive
C[C@H]1CCCCO[C@H](CN(C)Cc2ccncc2)[C@@H](C)CN([C@@H](C)CO)C(=O)c2cc(NC(=O)C3CCCCC3)ccc2O1 | inactive
C[C@H]1CCCCO[C@@H](CN(C)Cc2ccccc2)[C@@H](C)CN([C@@H](C)CO)C(=O)c2cc(NC(=O)Nc3ccccc3)ccc2O1 | inactive
CCS(=O)(=O)N1CC[C@]2(CC1)CN([C@H](CO)c1c2c2ccc(cc2n1C)OC)C(=O)CN1CCOCC1 | inactive
Cc1noc(C)c1NC(=O)N(C)C[C@@H]1Oc2ccc(NS(=O)(=O)c3cn(C)cn3)cc2CC(=O)N([C@@H](C)CO)C[C@H]1C | inactive
C[C@@H]1CN([C@@H](C)CO)C(=O)c2cc(NS(=O)(=O)c3cn(C)cn3)ccc2O[C@@H]1CN(C)C(=O)Nc1ccc(F)cc1 | inactive
